In the RNAGym collection of RNA variant scans (doi:10.7554/elife.90254):
The source gives no read counts; variants with many changes may rest on few reads.

B1: LINE1-mini (parent)
chain: GGCAGAGCUCAACACAGCGUGGCAAAGUGGCUGUGGCUAGACUGCC

Variants of: B1
Experiment: self-cleavage, relative activity (ratio to wild type); higher = more cleavage; in vitro, sequencing; the parent is a self-cleaving ribozyme

Variant | self-cleavage
G21C A24U A39U G40A | 0.07
U20G C23G G36C | 0.06
U20C U43C C45U | 0.01
G21C A24U G33U C37A | 0.02
G21C G36A U43A | 0.05
G21U A24G C37G | 0.07
G21U A41U U43C C46A | 0.06
G21U C31A G35A C45U | 0.03
G21A U28G C31G U38A | 0.02
G21U A24U G30U C42G | 0.03
G21C G30C C42A | 0.19
U20G A25C G35U G40U | 0
U20G A25C G29U U43C | 0.02
G21A A26C U28G G33C | 0.02
G21C C23G G27C G44C | 0.14
G21A C23A U32A | 0.14
G21U G29U C31U G33C G36U G44C | 0.03
G21C C23G G27C C46U | 2.06
G21A G40U C42G C45G | 0.01
U20C U28A A39G | 0.01
G21C G29U G30U | 0.39
G21U A25U G44C | 1
G21U A25C A26U | 0.52
G21C G35U C46G | 0.07

Variant | self-cleavage
U20G A39U C42U | 0.18
U20C U34G C42G | 0.03
G21A U34A G35C | 0.19
U20G A24U U32A | 0.06
U20G C31G G40A C42A | 0.02
U20G U34G G35U | 0.08
U20G G22C G35U | 0.03
U20G C31A C42U | 0.01
G21A G22C C37A A39C | 0.03
U20G C37G C46U | 0.02
G21A G36A U38G | 0.03
G21A G33A G40C | 0.07
G21A G33A G40U | 0.02
G21C G27U G30A U34A | 0.07
G21U G29A G40A C42G | 0.03
G21C G40U C42G | 0.05
G21A C31G G35A A39C | 0.05
G21C G33C A41G | 0.05
U20G G29C C42U | 0.14
G21A A25G G33C | 0.09
G21A A26U G29A | 0.57
G21A G27C G33C | 0.29
G21U G29U A39G A41U | 0.08
G21A G36C A39G | 0.07

Variant | self-cleavage
U20C G36U U38A C46U | 0.03
G21A G36A C45G | 0.09
U20G G21U C37A | 0.04
G21U C23G A39U C42U | 0.1
G21C G33U A39G | 0.08
U20G G21U A26U | 0.29
U20C U28A C37U | 0.01
U20G C23A A25G G30C U34A | 0.01
G21U C23U G30C G40C | 0.07
G21U C37U C45U | 0.11
G21A A26G C37A C46U | 0.04
G21A A25C U32A | 0.05
U20G G21C A39U | 0.34
G21C A25U G30C A39G | 0.06
G21U C31A C37G C46U | 0.02
G21C C23U A41U | 0.7
G21A C23A A39U | 0.35
G21C U38A A39C | 0.32
G21C G22U C46U | 0.48
G21U G27U C46A | 0.11
G21A G35C C42G | 0.04
G21C G30A C45G | 0.14
G21U A26C C42G C45U | 0.07
U20G G29U C31G U32G | 0.01

Variant | self-cleavage
G21C U28A G29A | 0.41
G21A U28C C31G | 0.08
U20G G21A C23G | 0.38
U20G U34C G35U C45U | 0.09
G21A U34A G40C | 0.01
G21A G22A U43A C45U | 0.71
G21C A26U G27C U38A | 0.64
G21C U34G C46G | 0.14
U20G A24U G27U A39U | 0.02
G21A G30A C31A | 1.11
G21U G22U G33C G36A | 0.07
G21C A25C C42U | 0.17
G21A C31G G36C U43C C46G | 0.02
G21U G22C A25U | 2.88
G21A G30A G40A | 0.51
G21C G27C U28G U34C U38A | 0.58
G21A U28A A39C | 0.04
U20G G27A C46U | 1.04
U20G G21U G27C A41C C46A | 0.03
G21U A26U G33A G35A G40U | 0.1
G21U C23G A25U | 1.43
U20C G36A U43A | 0.01
G21A G30U C31U | 0.02
G21A A25G G40U | 0.3

Variant | self-cleavage
G21U A25C G30U | 0.34
G21C A25U U28A C31U | 0.3
G21U A26G G33C G40U | 0.02
G21A U32G A41G C45G | 0.03
G21A G22A G30C A39U G44U | 0.09
G21C G36C A39C G44A C45A | 0.03
G21A U28A G30U C31U | 1.04
G21U A25G C37A A41G | 0.04
G21U A26U G36C U43C | 0.06
U20G G36U C45A | 0.03
G21A A25U C45A | 0.56
U20G U32A G40U | 0
G21C G29U U34G C42G | 0
G21A A39U A41G | 0.6
G21C C31A C46G | 0.06
G21A C23A G27U G30A | 1.24
U20G G21A G35U | 0.07
U20G A26C G33C | 0.07
U20G C23A C42G | 0.04
G21U G27C U28C C42A | 0.03
U20C U34G C37G | 0.03
G21U C23A G29U | 0.28
U20C U32G U34C C37A C42A | 0.03
G21A C31A C37G U43C | 0.05

Variant | self-cleavage
G21A C37G A39U | 0.08
G21C C23G C31U A41G G44U | 0.01
G21A U32C A39U A41U | 0.16
U20G G21A G36C | 0.09
G21C C31G A41G | 0
G21U A25U G40C C45U | 0.33
G21A C37A A41U | 0.2
G21C U28A G29U G35C | 0.03
U20G G21C G36C G44C | 0.03
G21A A41U U43G | 0.15
G21C C37U U38G | 0.01
G21A C37A C46A | 0.08
G21A A39U G44C | 0.23
G21U C23G U38G U43G | 0
U20G C23G G29A | 1.04
U20G A26G U43C | 0.07
G21A G27C C45A | 1.33
G21U C23G G29C | 0.55
G21A U38A C46A | 0.39
U20G G30A U38A | 0.82
G21U C31U U43C | 0.03
G21A G27U C31A G33U G36C | 0.08
G21U A24G G33A G35U G36U | 0.22
G21U C23U C31A G36A | 0.21

Variant | self-cleavage
G21C G30C U43C | 0.13
U20G A24U U28A | 0.4
U20G C31A G35U | 0.03
G21A G22A G27A C37U | 0.01
U20G A25G C31U G33C G40U A41U | 0.09
U20C G44A C45U | 0.06
U20C G35U C45U | 0.03
G21U C31A U32C C42A | 0.08
G21A A25C G29A C46G | 0.34
G21A A25C U28G C31U | 1.4
G21U A26C A41U | 0.39
U20G G21U U28C G29U | 0.17
G21C A25C G30A | 2
G21C G27A U34A | 0.45
G21U C42G G44C | 0.15
G21C C31G G36U | 0.09
G21U G27U G33A | 0.37
G21U C31A A39C | 0.1
G21C C23U G35U | 0.19
U20G U34C G44C | 0.04
G21A G22U C46G | 0.81
G21A G29C G35U G36C A39U | 0.05
G21A G33C U34A C42G | 0.01
